Experimental data published in PMC4336329 (PLoS ONE, 2015).
The campaign covered roughly 310,000 compounds. About 2,200 (0.71%) showed an effect of 50% or more. Effects have a minus sign here. Some of the results follow.

target: human ether-à-go-go-related gene (hERG) potassium channel (human, UniProt Q12809); assay: primary screen, population patch clamp on CHO cells stably expressing hERG
Sequence (Q12809 whole entry, looked up): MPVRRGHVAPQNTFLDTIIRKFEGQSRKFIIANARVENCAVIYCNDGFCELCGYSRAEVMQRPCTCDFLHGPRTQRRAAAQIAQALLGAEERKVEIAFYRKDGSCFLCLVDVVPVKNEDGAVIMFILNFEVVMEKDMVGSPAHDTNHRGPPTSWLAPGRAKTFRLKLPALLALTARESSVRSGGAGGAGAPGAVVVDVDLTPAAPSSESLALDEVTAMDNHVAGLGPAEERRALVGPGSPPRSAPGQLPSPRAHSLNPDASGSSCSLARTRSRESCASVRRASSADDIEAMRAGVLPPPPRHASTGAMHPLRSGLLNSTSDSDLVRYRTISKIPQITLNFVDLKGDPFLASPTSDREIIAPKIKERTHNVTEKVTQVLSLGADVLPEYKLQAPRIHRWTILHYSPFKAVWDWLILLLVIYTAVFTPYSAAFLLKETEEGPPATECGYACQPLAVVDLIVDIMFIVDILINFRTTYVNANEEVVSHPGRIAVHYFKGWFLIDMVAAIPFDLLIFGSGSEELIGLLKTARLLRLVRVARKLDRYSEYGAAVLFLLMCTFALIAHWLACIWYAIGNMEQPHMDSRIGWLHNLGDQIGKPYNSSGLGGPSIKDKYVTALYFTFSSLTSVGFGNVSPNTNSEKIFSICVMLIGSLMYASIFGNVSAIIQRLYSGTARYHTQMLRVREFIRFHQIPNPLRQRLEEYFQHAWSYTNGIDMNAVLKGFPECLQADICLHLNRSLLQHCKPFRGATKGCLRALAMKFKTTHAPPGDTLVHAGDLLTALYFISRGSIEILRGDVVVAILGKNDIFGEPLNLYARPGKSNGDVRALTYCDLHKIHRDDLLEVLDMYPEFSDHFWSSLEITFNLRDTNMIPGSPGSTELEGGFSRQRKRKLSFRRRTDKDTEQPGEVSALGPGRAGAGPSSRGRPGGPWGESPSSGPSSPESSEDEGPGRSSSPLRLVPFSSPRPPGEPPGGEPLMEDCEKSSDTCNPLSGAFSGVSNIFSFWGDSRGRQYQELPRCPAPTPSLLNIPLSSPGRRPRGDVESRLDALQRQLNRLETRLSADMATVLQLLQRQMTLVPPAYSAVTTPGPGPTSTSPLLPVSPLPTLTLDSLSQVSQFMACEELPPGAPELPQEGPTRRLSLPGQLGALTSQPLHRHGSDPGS

Row | SMILES | hERG current change (%, negative = inhibition) at 1uM
1 | CCS(=O)(=O)NC(C)C(c1cccs1)N1CCN(c2ccc(F)cc2)CC1 (stereo not shown) | 15.4%
2 | O=C(CN1CCN(c2ccc(F)cc2)CC1)Nc1nccs1 | 9.4%
3 | O=C(Nc1ccccc1)O/N=C(\c1ccccc1)c1ccccn1 | 5.35%
4 | COc1ccc(-c2nc(CC(=O)O)cs2)cc1 | 7.21%
5 | COC(=O)c1cccc(NC(=O)CSc2nc(=O)cc(N)n2-c2ccccc2)c1 | 18.3%
6 | Cc1cccc(NC(=O)CSc2nc3ccccc3nc2N2CCCC2)c1C | 6.74%
7 | O=C(NCC1CCCO1)c1ccc(Cn2c(=S)[nH]c3ccccc3c2=O)cc1 (stereo not shown) | 8.27%
8 | CC1CCc2nn(CC(=O)N3CCN(C(=O)c4ccco4)CC3)cc2C1 (stereo not shown) | 1.15%
9 | COc1ccc(OC)c(C2C(C(=O)c3ccco3)=C(O)C(=O)N2Cc2cccnc2)c1 (stereo not shown) | 15%
10 | CCOc1cc2c(cc1OCC)-n1cccc1C(c1ccccc1OC)NC2.Cl (stereo not shown) | 21.9%
11 | N#CCCNC(=O)CCN1CCOCC1 | 13.5%
12 | COc1ccc(CN2CCN(Cc3ccccc3)C(CCO)C2)cc1OC (stereo not shown) | 6.76%
13 | COc1ccc(N(CC(=O)N2CCN(Cc3ccccc3)CC2)S(C)(=O)=O)cc1Cl | 14%
14 | CCOC(=O)C1CCCN(C(=O)CN2C(=O)NC(C)(c3ccc4ccccc4c3)C2=O)C1 (stereo not shown) | 6.69%
15 | CCN(CC(=O)Nc1c(F)cccc1F)C(=O)c1ccccc1F | 16.3%
16 | O=C(C1CC1)N1CCN(c2ccc(O)cc2)CC1 | 2.84%
17 | CCN(CC)S(=O)(=O)c1ccc(N2CCCC2)c(NC(=O)c2ccc(OC)cc2OC)c1 | -3.3%
18 | COc1ccc(C(NC(=O)c2ccccc2F)NC(=O)c2ccccc2F)cc1 | 9.66%
19 | COc1ccccc1C(=O)COC(=O)CN1C(=O)c2ccccc2C1=O | 16.2%
20 | COc1ccc(C)cc1NC(=O)CN(c1ccc(C)cc1)S(C)(=O)=O | 0.905%
21 | Cc1ccc(S(=O)(=O)Nc2cc(S(=O)(=O)N3CCCCC3)ccc2N2CCOCC2)cc1 | 18.5%
22 | CCOc1ccccc1N1CC(C(=O)Nc2cccc(S(=O)(=O)N3CCCCC3)c2)CC1=O (stereo not shown) | 4.86%

Row | SMILES | hERG current change (%, negative = inhibition) at 1uM
23 | CCOCCCNC(=O)/C(C#N)=C/c1ccccc1F | 7.31%
24 | C/C(=N\NC(=O)C1CCCN(S(=O)(=O)c2ccccc2)C1)c1ccccn1 (stereo not shown) | 7.2%
25 | COc1ccc(CN2CCN(C(c3ccc(F)cc3)c3ccc(F)cc3)CC2)c(OC)c1OC.Cl | 6.28%
26 | CCOc1ccc(N=C2Sc3nc4ccc(C)cc4cc3CN2CCOC)cc1 | 16.5%
27 | CCCNC(=O)c1ccc(N2CCC3(CC2)CC(c2cccc(Br)c2)=NO3)c(NC(=O)c2c(Cl)cccc2Cl)c1 | 1.79%
28 | CCOc1ccc(-c2nnc3ccc(SCC(=O)Nc4nc5ccccc5s4)nn23)cc1 | 4.4%
29 | CC(=O)Nc1ccc(N2C(=O)CSC2c2c(F)cccc2Cl)cc1 (stereo not shown) | 3.41%
30 | CN(C(=O)c1ccc2c(c1)OCO2)C1CCS(=O)(=O)C1 (stereo not shown) | 5.94%
31 | CCc1ccc(OCC(O)CN2CCC(CN3C(=O)c4cccc5cccc(c45)C3=O)CC2)cc1.Cl (stereo not shown) | 13.9%
32 | CC1=C(C(=O)OCC(C)C)C(c2ccc(F)cc2)NC(=O)N1 (stereo not shown) | 10.6%
33 | C=CCOc1ccc(/C=C2\C(=N)N3N=C(S(=O)(=O)CC)SC3=NC2=O)cc1OC | 6.64%
34 | Cc1cccc(-n2ncc3c(NCc4ccco4)ncnc32)c1 | -0.273%
35 | CC/C(=N\NC(=O)C1CCCC1)c1ccc(Br)cc1 | 11%
36 | CN(Cc1ccccc1)C(=O)CCC1CCN(S(C)(=O)=O)CC1 | 7.49%
37 | COc1cccc(-c2[nH]nc3c2C(c2ccoc2)C(C#N)=C(N)O3)c1 (stereo not shown) | 4.73%
38 | CC(=O)N1c2ccc(S(=O)(=O)NCCc3ccccc3)cc2CC1C (stereo not shown) | 8.21%
39 | COc1ccccc1NC(=O)N(c1c(N)n(Cc2ccccc2)c(=O)[nH]c1=O)C1CCCC1 | 0.722%
40 | O=C(NC1CCSC1=O)c1ccc(Cl)cc1 (stereo not shown) | 0.7%
41 | COc1ccc(C(CNC(=O)C(C)Oc2ccc(Br)cc2)N2CCOCC2)cc1 (stereo not shown) | 3.79%
42 | COC(=O)c1c(C)nc2ccccc2c1-c1ccccc1 | -3.15%
43 | CCN(CCn1cccn1)C(=O)CC1C(=O)NCCN1Cc1ccc(F)cc1 (stereo not shown) | 6.34%
44 | CC(C)CC(=O)NC(=S)Nc1ccccc1C(F)(F)F | 0.73%

Row | SMILES | hERG current change (%, negative = inhibition) at 1uM
45 | CCOC(=O)CSCC(=O)N1N=C(c2cccs2)CC1c1ccc(F)cc1 (stereo not shown) | 6.12%
46 | CC1CCC/C(=N\NC(=O)Nc2ccccc2)C1 (stereo not shown) | -1.92%
47 | O=C(CCCCCCC(=O)c1ccccc1)c1ccccc1 | 10.2%
48 | CC(C)C1C(=O)NC(=S)N1S(=O)(=O)c1ccc(C(C)(C)C)cc1 (stereo not shown) | 9.35%
49 | COc1cc(N)c(Cl)cc1C(=O)OCC(=O)c1cccs1 | 18.7%
50 | CCn1nccc1C(=O)Nc1ccc(C(=O)OC(C)C)cc1 | 13.9%
51 | CCOC(=O)C[C@H]1c2ccc(C(F)(F)F)cc2S(=O)(=O)N1C1CCCC1 | 8.64%
52 | COc1ccc(C2=NOC3(CC(=O)N(c4ccc(C)cc4)C3=O)C2)cc1 (stereo not shown) | 5.51%
53 | Cc1nc(NCc2ccccc2)sc1C(=O)Nc1ccccc1 | 13.8%
54 | O=C(N[C@@H](Cc1ccccc1)C(=O)OCc1ccccc1)c1nc[nH]c1C(=O)NCc1ccccc1 | 0.398%
55 | COc1cccc(C2=NOC(C(=O)Nc3cccc(C(C)=O)c3)C2)c1 (stereo not shown) | -13.8%
56 | O=C(N/N=C/c1ccc(O)c([N+](=O)[O-])c1)C(O)(c1ccccc1)c1ccccc1 | 17.5%
57 | O=S(=O)(NC1CCCCC1N1CCC(O)CC1)c1ccc(Cl)cc1 (stereo not shown) | 5.39%
58 | COC(=O)CSc1nc(N)c2c3c(sc2n1)CCCC3 | -0.221%
59 | C=CCCCCCCCC(=O)OC | 16%
60 | CCOc1ccccc1OCCCOc1ccc(C)cc1Br | 7.8%
61 | CC(C)COc1ccc(C2(C#N)CC[N+](C)(C)CC2)cc1.[Br-] | 9.21%
62 | O=C(Nc1ccncc1)c1ccc(C(=O)Nc2ccncc2)cc1 | 2.85%
63 | Cc1sc2ncn(CC(=O)NCCCN3CCC(C)CC3)c(=O)c2c1S(=O)(=O)N1CCC(C)CC1 | 16.9%
64 | Cc1cccc(C)c1OCC(=O)Nc1ccc(S(=O)(=O)Nc2ccccn2)cc1 | 3.35%
65 | CN(C)CCCN(C(=O)c1ccco1)c1nc2ccc(Br)cc2s1.Cl | -33%
66 | CCc1sc(NC(=O)C(C)C)nc1-c1ccccc1 | -0.0628%

Row | SMILES | hERG current change (%, negative = inhibition) at 1uM
67 | COc1ccc(C(=O)/C=C/c2cn(CC(O)CN3CCN(C)CC3)c3ccccc23)cc1OC (stereo not shown) | 5.59%
68 | CCN1CCN(CCCNC(=O)CNC(=O)c2nn(-c3ccc(OC)cc3OC)c(=O)c3ccccc23)CC1 | 1.82%
69 | O=C(COc1ccc(S(=O)(=O)N2CCCCC2)cc1)N1CCN(Cc2ccccc2)CC1 | 2.21%
70 | Cc1n[nH]c(=S)n1/N=C/c1c(O)ccc2ccccc12 | 21.6%
71 | COC(=O)c1ccc(Oc2nc(C(N)=O)cc(-c3ccccc3)n2)cc1 | 18.2%
72 | CCC/C(=N\NC(=O)CNC(=O)/C=C/c1ccco1)c1ccccc1 | -0.435%
73 | CCC1(C)Cc2c(sc3[nH]c(=S)n(Cc4ccccc4)c(=O)c23)CO1 (stereo not shown) | 11%
74 | COc1ccc(-n2ncc3c2CC(C)(C)CC3NC(=O)CCc2c(C)nn(C)c2C)cc1 (stereo not shown) | 5.99%
75 | CCCOc1ccc(C(=O)NNC(=S)NC(=O)c2cccs2)cc1 | 21.1%
76 | CNC(=S)Nc1cc(OC)c(NC(=O)c2ccco2)cc1OC | 18.8%
77 | CCOC(=O)c1nn(-c2cccc(C)c2)c2nc(-c3ccccc3)c(C#N)c(=O)n12 | -2.43%
78 | CCOC(=O)c1cnc2c(C#N)cnn2c1N | 18.5%
79 | CC1C(=O)Nc2ccccc2N1C(=O)c1cccc(C(F)(F)F)c1 (stereo not shown) | 6.13%
80 | COc1ccc(Cn2c(SCc3ccccc3C)nc3cc(OC)c(OC)cc3c2=N)cc1 | 5.34%
81 | C/C(=N\OCC(=O)O)c1ccc(Cl)cc1 | 11.8%
82 | C=C1C(=O)O[C@@H]2C[C@@H](C)[C@H]3C=CC(=O)[C@]3(O)C[C@@H]12 | 12.6%
83 | Cc1csc(NC(=O)CSc2nnc(-c3ccc(Cl)cc3)n2N)n1 | -4.27%
84 | Cc1noc(C)c1S(=O)(=O)N1CCCC(C(=O)NCc2ccccn2)C1 (stereo not shown) | 6.3%
85 | CC(=O)N(C1=C(Cl)C(=O)c2ccccc2C1=O)c1ccc(C(=O)O)cc1 | 11.1%
86 | Cc1cc(C)n2nc(SCCOc3ccccc3)nc2n1 | 1.37%
87 | CCOC(=O)NC(O)C(=O)c1cccs1 (stereo not shown) | 11.7%
88 | COc1ccccc1C(=O)NNC(=O)C(=O)Nc1cccc(Cl)c1C | 14.9%
